PubChem BioAssay AID651820 (National Center for Advancing Translational Sciences (NCATS), 2012)
Screen size: about 340,000 compounds; about 12,000 (3.5%) were called active. Inconclusive results, whose numbers are uncertain, are shown with a selection of clear calls. Calls follow the shape of the dose curve; as a rule, active = well fitted inhibition curve with a large enough effect; inconclusive = small, poorly fitted or top-dose-only effect, or another doubt; inactive = no such curve, though single readings can be large or run the other way. No potency is given beside an inconclusive call; the fits are too rough.

Assay: qHTS Assay for Inhibitors of Hepatitis C Virus (HCV)
Conditions: Huh7.5.1 HCVcc-Cre (HCVcc is cell-culture hepatitis C virus) infection, luciferase reporter, 44 h; series mostly up to 41.8 µM
In short: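 Antiviral activity was scored by luciferase reporter output from cells infected with HCVcc-Cre (~0.5 moi) in presence of compound, 44 h infection period, cells seeded 1,000/well 4 h prior.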
Potency is read from the fitted curve at half-maximal effect; tags tell the direction and shape of the fitted curve.

Q: Which Potency does the source give for `COC(=O)C1=C(c2ccc(F)cc2OCc2ccccc2)C[C@@H]2CC[C@H]1N2C(=O)N1CCCCC1` here?
A: inconclusive [inhibitor, single point]

Q: Which Potency does the source give for `CCOc1ccc(S(=O)(=O)N2CCC(C(=O)Nc3ccc(C)c(S(=O)(=O)N4CCOCC4)c3)CC2)cc1` here?
A: inconclusive [inhibitor, single point]

Q: Which Potency does the source give for `COc1ccc(N=Cc2ccc(CNS(=O)(=O)c3ccc(Cl)cc3)o2)cc1` here?
A: inactive

Q: For `CN(C)CCN(C(=O)C1=COCCO1)c1nc2ccc(Cl)cc2s1`, which Potency is on record?
A: inconclusive [inhibitor, single point]

Q: With `O=C(Cn1nc(-c2nn(CC(=O)c3ccccc3)c3[n+]2CCCCC3)[n+]2c1CCCCC2)c1ccccc1` as the molecule, how does the Potency read?
A: inactive

Q: With `O=C(Nc1ccccc1)c1ccc(CSc2ccccn2)cc1` as the molecule, how does the Potency read?
A: inconclusive [inhibitor, single point]

Q: With `Cc1cc(C(=O)CN2C(=O)c3ccccc3S2(=O)=O)c(C)n1-c1ccccc1` as the molecule, how does the Potency read?
A: inconclusive [inhibitor, single point]

Q: For `O=C(Nc1ccc(F)cc1)c1cn(-c2ccccc2)nc1-c1ccncc1`, which Potency is on record?
A: inconclusive [inhibitor, single point]

Q: For `COC(=O)C1=C(C)N(Cc2ccco2)C(=O)N[C@@H]1c1ccccc1`, which Potency is on record?
A: inactive

Q: For `O=C(Nc1ccccc1F)c1cccc(C(=O)Nc2ccccc2F)c1`, which Potency is on record?
A: inactive

Q: For `Cc1ccc(-n2c(-c3ccccc3)c[nH]c2=S)cc1`, which Potency is on record?
A: inconclusive [inhibitor, single point]

Q: Which Potency does the source give for `CC(=O)Cc1nsc(NC(=O)c2ccc(-c3cccc(C(F)(F)F)c3)o2)n1` here?
A: inactive

Q: For `O=C(CN1CCN(C(=O)N2CCOCC2)CC1)Nc1ccc(Br)cc1`, which Potency is on record?
A: inactive

Q: Which Potency does the source give for `CC(=O)Nc1cccc(C(=O)OCc2ccccc2)c1` here?
A: inconclusive [inhibitor, single point]

Q: Which Potency does the source give for `Cc1ccc(C)c(NC(=S)Nc2cccnc2)c1` here?
A: inactive

Q: With `O=C(CN1CCN(Cc2ccc(F)cc2Cl)C1=O)NCCc1ccc(Cl)cc1` as the molecule, how does the Potency read?
A: inconclusive [inhibitor, partial curve]

Q: Which Potency does the source give for `COc1cccc(C2c3cc4c(cc3OC(N3CCCC3)C2C)OCO4)c1O` (stereo not given) here?
A: inconclusive [inhibitor, single point]

Q: For `COC(=O)c1sc(S(=O)(=O)NCc2cccs2)c(C(=O)OC)c1C`, which Potency is on record?
A: inconclusive [inhibitor, single point]

Q: With `Cc1cccc2c(=O)c(-c3ccc(Cl)cc3)c(NC(=O)c3ccco3)oc12` as the molecule, how does the Potency read?
A: inactive

Q: For `CCC(C)NC(=O)Nc1ccc(Br)cc1Cl` (stereo not given), which Potency is on record?
A: inconclusive [inhibitor, partial curve]

Q: With `O=C(O)c1ccc(CSc2nnc(COc3ccc(Cl)cc3Cl)o2)cc1` as the molecule, how does the Potency read?
A: inactive

Q: Which Potency does the source give for `c1nc(NC2CCCC2)c2[nH]cnc2n1` here?
A: inconclusive [inhibitor, single point]

Q: For `CCc1ccccc1NC(=O)CCc1nc(-c2ccc(C)cc2)no1`, which Potency is on record?
A: inactive

Q: With `CC(C)(C)NC(=O)CCN(/N=C/c1ccc([N+](=O)[O-])o1)C1=NS(=O)(=O)c2ccccc21` as the molecule, how does the Potency read?
A: inconclusive [inhibitor, single point]

Q: For `CCN(c1ccc(NC(=O)CN2C(=O)NC3(CCOc4ccccc43)C2=O)cc1)C(C)C` (stereo not given), which Potency is on record?
A: inconclusive [inhibitor, single point]

Q: With `CC(=O)ON1C(C)(C)CC(OC(=O)c2ccccc2)CC1(C)C` as the molecule, how does the Potency read?
A: inconclusive [inhibitor, single point]

Q: For `Cc1ccc(NC(=O)CSc2nc3c(cc2C#N)C(=O)CCC3)cc1S(=O)(=O)N(C)C`, which Potency is on record?
A: inconclusive [inhibitor, partial curve]

Q: With `CCc1cccc(NC(=O)CCc2c(C)nn(-c3ccc(N4CCCCC4)nn3)c2C)c1` as the molecule, how does the Potency read?
A: inconclusive [inhibitor, single point]

Q: With `CCC(=O)Nc1ccc(-c2nc3ccccc3c(=O)o2)cc1` as the molecule, how does the Potency read?
A: inactive

Q: Which Potency does the source give for `CCOC(=O)CSc1nc2c(c(=O)[nH]1)C(C)(CC)Cc1ccccc1-2` (stereo not given) here?
A: inconclusive [inhibitor, single point]

Q: For `CCCn1nc(C(=O)NC2CCCc3ccccc32)c2ccccc2c1=O` (stereo not given), which Potency is on record?
A: inconclusive [inhibitor, partial curve]

Q: With `CCOC(=O)[C@@H]1[C@H]2COc3cc(OC)ccc3[C@@H]2N2C(=O)N(c3cccc(Cl)c3)C(=O)[C@]12C` as the molecule, how does the Potency read?
A: inconclusive [inhibitor, single point]

Q: For `Nc1ccc2ccccc2c1N=Nc1ccccc1`, which Potency is on record?
A: inconclusive [inhibitor, single point]

Q: With `Cc1ccc(C2(O)CN(c3ccccc3)C3=[N+]2CCS3)cc1` (stereo not given) as the molecule, how does the Potency read?
A: inconclusive [inhibitor, partial curve]

Q: Which Potency does the source give for `CC(=O)Nc1nn(C)c2nc3cc(C)ccc3cc12` here?
A: inconclusive [inhibitor, single point]

Q: Which Potency does the source give for `Cc1nc2nc3c(c(=O)n2[nH]1)CCC3` here?
A: inactive

Q: With `Cc1ccc(CN(c2ccc(C(=O)Nc3cccnc3)cc2)S(C)(=O)=O)cc1` as the molecule, how does the Potency read?
A: inactive

Q: For `CN1CCN(CCCNC(=O)c2ccc(/C=C3/Sc4ccccc4N(Cc4cccc(Cl)c4)C3=O)cc2)CC1`, which Potency is on record?
A: inconclusive [inhibitor, single point]

Q: Which Potency does the source give for `COc1ccc(-c2ccc(-c3nc4ccc(C)cn4c3NC3CCCCC3)cc2OC)cc1` here?
A: inconclusive [inhibitor, partial curve]

Q: For `O=C(Nc1cccc(S(=O)(=O)C(F)F)c1)c1ccc(S(=O)(=O)N2CCCCC2)cc1`, which Potency is on record?
A: inconclusive [inhibitor, partial curve, poor fit]

Q: With `Cc1ccc(N(C(=O)C2CCCC2)C2C=CS(=O)(=O)C2)cc1` (stereo not given) as the molecule, how does the Potency read?
A: inactive

Q: For `N#Cc1c(NCc2ccccc2)ccnc1NCc1cccnc1`, which Potency is on record?
A: active: 7.08 µM

Q: Which Potency does the source give for `Cc1cc(C)cc(NC(=O)CCc2nc3ccccc3[nH]2)c1` here?
A: inactive

Q: For `CCN(c1ccccc1)S(=O)(=O)c1cccc(C(=O)N(C)CCOc2ccccc2)c1`, which Potency is on record?
A: inconclusive [inhibitor, partial curve, poor fit]

Q: Which Potency does the source give for `Cc1occc1-c1nnc(SCC(=O)NC2CCCC2)n1-c1ccccc1` here?
A: inconclusive [inhibitor, single point]
